The supplement of paper PMC11417369
The list shows a part of the results.

Tested on: PfAP2-HC AP2 domain (GST-tagged)
Test: gcPBM binding intensity (ln(normalized median fluorescence intensity)); higher = stronger DNA binding
Outline: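 An Agilent 4 × 180k array of primer-extended double-stranded 36-bp intergenic genomic probes, with negative controls, was incubated for 1 h with GST-tagged P. falciparum DNA-binding domains expressed in E. coli. Alexa488 anti-GST antibody detected bound protein, scanned at 488 nm. Binding intensity is the highest Masliner-normalised natural-log median intensity across replicate spots of either probe orientation.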

| Sequence | gcPBM binding intensity (ln) |
| --- | --- |
| TTTTTCATTTTTAAAATAATTATAATATTATACATA [XGTACX_negctrl_site43] | 9.19 |
| ATAATTAACAAATACACACACACACGCCCACAAAAA [CACACA_site6389] | 11.6 |
| AGCAAATAAATAAATAAATAAATAAATATATATATA [TGCATGCA_negctrl_site40] | 9.61 |
| CAATCAAATGGACACACACACACCTAAACATAAAAG [CACACA_site5524] | 10.5 |
| ATTAAAAAATTACAAGCATGCTTGTTAAAATTTTTT [TGCATGCA_site941] | 9.42 |
| CTTTTTTTTTTAAATTGTACAAATGTGATGTAATAG [XGTACX_site3219] | 9.24 |
| TGGGCACCCATATACACACACAAATACAATGATAAA [CACACA_site4762] | 9.91 |
| TATATATATGTATATGTGCACAGTTTTCTTATTAAA [GTGCAC_site9990] | 9.63 |
| GGAAAAGGTATCCGTTCACACATAAATGGATACCAT [CACACA_site5072] | 9.49 |
| AAAAAAAAAAAAATGTGTACATACATATATTTATAT [XGTACX_site3076] | 9.74 |
| TCTATATAGATTTGCACACATAAAAATGCTTATATA [CACACA_site2389] | 9.81 |
| ATTACATATTGATAAGTGCAAGTGTGAGAAATGTTA | 9.82 |
| AATATATTATATATATGTACATATGTGTATACATTT [XGTACX_site937] | 9.79 |
| TTTTATTTATTTTATTGTACATATATAAAACTATGA [XGTACX_site3476] | 9.44 |
| TTTTTTTTTTTTGAAACATGCATTGTTTTATTCTTA [TGCATGCA_site15] | 9.46 |
| TCTATACCTATTCTTACACACATATGTATATATATA [CACACA_site563] | 10.1 |
| AAAAAAAGATTATACACACACATATATAAACCTACA [CACACA_site710] | 10.7 |
| TTTTTTTTTTTTTGTTGTACAATACTTAATCATTAT [XGTACX_site3422] | 9.6 |
| ATATATATATAATCAAGTACACAGTAATAAAAAGAA [XGTACX_site1070] | 10.2 |
| AATAATAACTGTAGGTGTACGTAAAAAAAAAATTAT [XGTACX_site3133] | 9.92 |
| ATTGTGTTCATCAGCACACACAACATCATGCAATAA [CACACA_site6960] | 9.9 |
| TAAATGCACATATACACACACCCAATTTTAAGTTTT [CACACA_site7428] | 10.9 |

| Sequence | gcPBM binding intensity (ln) |
| --- | --- |
| ATACATATTACATGTTGTACTCCAACAAAAATGCCC [XGTACX_site3201] | 9.67 |
| TTAATTTCATTTTCTACACACCTATCCTTTTTTTTT [CACACA_site772] | 9.88 |
| ACATCAAGAATTATTAAGAATACGGATAGATAAAAT [GTGCAC_negctrl_site261] | 9.57 |
| AATAAAAAAAGTTTTTTTTTTTTTTAAACAATAGAC [CACACA_negctrl_site1061] | 9.49 |
| ATAATAATAATAAAAAGTACATTTAATTATATAGAA [XGTACX_site7742] | 9.69 |
| AATAACCACCAACACACACACATATATATATATATA [CACACA_site3540] | 10.2 |
| AAAAATTTAATGAAATGTACATATATGTTATTAATA [XGTACX_site6091] | 9.6 |
| TATATGTTTTAAAAGTGTACTTTAGTTTCAATTTTT [XGTACX_site4269] | 9.49 |
| AAGAATGTTAATAGTACACACAATTATTATATAAAT [CACACA_site3739] | 9.93 |
| AATGTATATATGTAATGTACATATGTAATGTATATA [XGTACX_site6509] | 9.94 |
| TTTTGTTTTGTTTTGTTTTGTTTTGTTTTATTTTAT [GTGCAC_negctrl_site383] | 9.72 |
| AATATAGATATAACCACACACATACATCTAATTCTA [CACACA_site1760] | 10.2 |
| GAAAAGAACAAGAGCATGCACTTAATAAGAATAATA | 9.78 |
| TGTTTCTTATTTTTTTCACACACTAAACATTTCAAA [CACACA_site2218] | 9.9 |
| TTTCAAAATGTGTAAAATAAAAATAATATCATTACA [TGCATGCA_negctrl_site521] | 9.46 |
| ATGTGATATAAGTACACACACATATGTATATAGAAT [CACACA_site1823] | 10.4 |
| TATATATGTGTTATATACCCTTTTTTATATATTAAT [XGTACX_negctrl_site313] | 9.75 |
| CATACATAGATATATACACACATACCTATAAATACA [CACACA_site6513] | 10.2 |
| TAAAAATCCACAAGCACACAAATGTACATATATATA [CACACA_site2462] | 9.88 |
| AATTTTGTTAAAAGGACACACAATTCAATATATTAA [CACACA_site647] | 9.76 |
| TACACGTTCTACATTTGTACTTAATTTATACATAAG [XGTACX_site1579] | 9.79 |
| TACGTCTTTTTTTTGGTGCATAATTTTTTTGTACAA | 9.65 |

| Sequence | gcPBM binding intensity (ln) |
| --- | --- |
| GCTATTAATTTATAAGCACACAATATAAATATATAT [CACACA_site2251] | 9.6 |
| ATTACATGATATATCACACACACATATAGATATATA [CACACA_site7352] | 10.8 |
| TATGTCGACATTTAAAGTACAAAAAAAAAAAAAAAA [XGTACX_site8985] | 9.14 |
| ATTTATTTAAACAAATCACACACAAATATATATACA [CACACA_site8622] | 10.1 |
| TATATTAAAATATTCACACACTAACGTAAATCATTG [CACACA_site5520] | 9.74 |
| AGAAAAGAGAAAAGTAGTACAAAGGATCATTTAAAA [XGTACX_site5294] | 9.59 |
| TTAAGTCCGTTAACAGTGCATTTTTTCTTTTATGTA [GTGCAC_site9867] | 9.58 |
| ATTAAAAAAATATAAACACACAAAAAAAAAATATAC [CACACA_site1100] | 10.4 |
| TAATGAAAAAATAAAAGAATAAATAAATAAATAAAT [TGCATGCA_negctrl_site130] | 9.7 |
| TATAAAAAGCATAACACACACATGTCAATATATATA [CACACA_site1111] | 10.4 |
| ATAGAACAGAAAAGGCGTACAATAATATGTAAACAA [XGTACX_site2828] | 9.77 |
| AAAAAAAAAATATGTACACACATATATAATACATAA [CACACA_site1639] | 10.1 |
| TATAAATTTAAAATGACACACACTAAAATTATTTAA [CACACA_site1239] | 10.2 |
| TATATATATATATATATATATATATATATATGTATA [TGCATGCA_negctrl_site17] | 9.35 |
| GTATTATTATTATGCACACAAAAATATTTATACATA [CACACA_site3656] | 9.77 |
| CATATGTCTTGAGATCGTACGTTATTTTTTTTATTT [XGTACX_site1381] | 9.82 |
| TGGTAAATTTACCGTTGTACATTCATTTATAACATT [XGTACX_site8910] | 9.62 |
| AAAAATTATATATATATATATATATATATATGTATA [GTGCAC_negctrl_site488] | 9.48 |
| AAGAATATTAATATAAATAAGTAAATAAATAAATAA [CACACA_negctrl_site417] | 9.74 |
| ATATTCATTAACCACACACACAAAAAAAATAAAATT [CACACA_site3801] | 10.2 |
| ATATATGTATTTAATACACACAAAACTTTCATTCCA [CACACA_site3531] | 9.85 |
| TTTTTAGAAAGACATGCATGTAATAAAAATAAATAA [TGCATGCA_site685] | 9.82 |

| Sequence | gcPBM binding intensity (ln) |
| --- | --- |
| ATACATATATGCTTCTGTACACATAATTTATAAAAA [XGTACX_site7000] | 9.5 |
| ACATACACATATACATGTACATATATATATATATAT [XGTACX_site5082] | 9.99 |
| CTATTTCAATTTAGTGCACACATTTTAATTTATAAG [CACACA_site2040] | 9.74 |
| CATTATTATTAACATACACACGTGTTAAATACACCC [CACACA_site6118] | 9.85 |
| TATGAAAAGATATATACACACATAATAAAGGTATAT [CACACA_site7713] | 10.1 |
| ATTAAAACAAAATGTACACACATATCATTTAATGAC [CACACA_site6543] | 9.9 |
| TTTTAATCTTAATTATGTACATATAAAATGTGTATA [XGTACX_site7382] | 9.61 |
| TATAATGAGAAGATATAATATATAGGGGGTAATTCT [GTGCAC_negctrl_site228] | 10.1 |
| TTTTTTTCATAAGAAGCACACAAAAAATGATAGAGA [CACACA_site8401] | 9.64 |
| ATATATATATATATATGTACTTATTTGTATAAATAC [XGTACX_site8031] | 9.77 |
| TAGATTTTTATGCGTGCACACATTTAAAAAAAAAAC [CACACA_site3421] | 9.98 |
| ATACCTACATACATACGTACATATATATATATAATG [XGTACX_site234] | 9.75 |
| TTTTAATAAATTCAAAACATAAAAAGGAAAAAAAAA [XGTACX_negctrl_site471] | 9.44 |
| AAATATAATAACATAACACACACATGTATTTATAGG [CACACA_site8009] | 10 |
| TATTGGAAAATTAGAAGTACTTTCATATATTAGACT [XGTACX_site4503] | 9.49 |
| TTTTTATTATTCCATAGTACAGAAAAAATGATATAT [XGTACX_site3431] | 9.2 |
| ATTCTTTATTATTCGCCACACACATATATATATATA [CACACA_site9009] | 10.1 |
| TGTAGTCTGGAGAAAAGTACACAGTATCTGGTAACC [XGTACX_site2033] | 9.62 |
| ATATAGAATAAAACTATACACACCTATATTTAAACA [CACACA_site1902] | 10.1 |
| ATATAAAAAAATAATAAATAAATAAAAAGATTTCTT [XGTACX_negctrl_site110] | 9.65 |
| CTTGTATAGAAACACACACACACTTTCTTTTTTTAA [CACACA_site1964] | 10.2 |
| TATATTAATAAAGGTACTACACGGAAATGGAAATAT [XGTACX_site7760] | 9.86 |
